# ± gives the standard error. Some of the results follow.
# Biological target: terminal deoxynucleotidyl transferase (calf thymus) (UniProt P06526)
# Test: TdT poly-dT extension signal (Cy3 hybridisation fluorescence, uncapped minus capped) (fluorescence a.u.); higher = more efficient initiation of TdT extension
# Conditions: initiator chemistry: L-DNA (mirror-image), free 5'-OH (3'-tethered via HEG linker)
# Protocol: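 All mono- to pentamer D-DNA or L-DNA initiators were made by forward (3'->5') photolithographic in situ synthesis on glass on a hexaethylene glycol linker, leaving a free 5'-OH. Each was made in uncapped and DMTr-dT-capped versions, about 11 replicates each. Arrays were extended with calf thymus TdT (0.2 U/uL), 100 uM dTTP and 0.25 mM CoCl2 for 120 min at 37 C, hybridised with an rA18-Cy3 probe and scanned at 532 nm. The value is the mean uncapped minus the mean capped signal. IDs read 5'->3'. L-DNA is mirror-image; D-DNA 5'-OH initiators were below LOD (no extension).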
# Sequence of UniProt P06526 (P06526 whole entry): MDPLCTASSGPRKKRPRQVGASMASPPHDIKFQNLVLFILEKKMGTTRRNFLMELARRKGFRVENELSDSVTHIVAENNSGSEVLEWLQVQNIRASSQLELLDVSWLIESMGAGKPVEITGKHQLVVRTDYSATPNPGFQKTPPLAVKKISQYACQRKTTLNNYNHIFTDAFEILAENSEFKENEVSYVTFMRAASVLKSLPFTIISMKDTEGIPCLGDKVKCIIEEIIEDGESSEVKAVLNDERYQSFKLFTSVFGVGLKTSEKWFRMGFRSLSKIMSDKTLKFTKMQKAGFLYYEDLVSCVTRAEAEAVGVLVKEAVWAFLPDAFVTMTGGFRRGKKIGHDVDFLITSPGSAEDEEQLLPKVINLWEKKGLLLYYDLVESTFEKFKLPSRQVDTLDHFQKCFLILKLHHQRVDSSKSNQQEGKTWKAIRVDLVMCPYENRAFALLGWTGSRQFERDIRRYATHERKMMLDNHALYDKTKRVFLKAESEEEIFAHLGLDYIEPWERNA
row,Sequence,TdT poly-dT extension signal
1,TGTG,123 ± 6.1
2,TCGAT,152 ± 12
3,TACCT,141 ± 10
4,CCTT,60.3 ± 10
5,ATAT,141 ± 13
6,TATAG,204 ± 9
7,TTGG,274 ± 21
8,TAATG,182 ± 15
9,CGAAA,92.7 ± 13
10,TGACC,179 ± 15
11,TTTAG,345 ± 24
12,CAGGT,44 ± 3.9
13,TACC,142 ± 18
14,AGATC,77 ± 6.2
15,GAACG,96.6 ± 7.8
16,GGAGC,79.7 ± 6.2
17,GTTGC,102 ± 8.8
18,AATAC,79 ± 9.3
19,ACCGA,89.5 ± 5.2
20,ATGTT,124 ± 10
21,CAACA,80.2 ± 9
22,TTGAG,317 ± 33
23,TACCC,155 ± 13
24,AGCAA,61.2 ± 5.3

row,Sequence,TdT poly-dT extension signal
1,GCAAA,115 ± 8.9
2,CGACA,68.1 ± 4.9
3,TTTCC,270 ± 21
4,AGAAA,82.7 ± 7.4
5,ACGGC,50 ± 6.3
6,AGTT,37.4 ± 4.8
7,GTTC,116 ± 8.2
8,CAACG,76.7 ± 5.5
9,TTTTA,302 ± 24
10,TGGCA,96.5 ± 7.1
11,ACACA,80.3 ± 8.1
12,TGTCA,114 ± 7.2
13,CTGCT,104 ± 12
14,AACTG,74.9 ± 5.8
15,AGTC,44.1 ± 8.7
16,GGCCC,67.7 ± 6.4
17,GGAG,72.5 ± 3.7
18,ATGT,106 ± 8.2
19,GGCG,75.4 ± 7.1
20,CAGGC,52 ± 4.7
21,AGGG,47.5 ± 6.5
22,GCGCC,64.7 ± 7.3
23,TTTC,280 ± 19
24,GTCCT,117 ± 9.6

row,Sequence,TdT poly-dT extension signal
1,CCAG,107 ± 9.7
2,CGAC,78.8 ± 9.6
3,CGGTG,43.7 ± 6.1
4,TCGGG,143 ± 7.4
5,CGGAT,48.4 ± 7
6,CATCT,69.7 ± 4.5
7,TGGA,107 ± 8.9
8,ACTAC,61.4 ± 8.8
9,GGACA,71.4 ± 6.9
10,GAACC,55.9 ± 8.8
11,TCGAG,160 ± 9.7
12,TAGCG,124 ± 12
13,CTACC,127 ± 19
14,AGGAA,57.1 ± 6.7
15,ACCCA,77.1 ± 11
16,GTATG,132 ± 13
17,CTGTG,139 ± 11
18,ACAGT,65.8 ± 8.1
19,GCTAT,89.5 ± 6.6
20,TGGAG,127 ± 6.7
21,TCCA,195 ± 15
22,GCTAC,79.9 ± 4.2
23,CGTTT,51.4 ± 5
24,TGTGA,140 ± 8.8

row,Sequence,TdT poly-dT extension signal
1,TATGA,201 ± 13
2,TGAGC,147 ± 8.6
3,GCGTA,50.5 ± 5.1
4,GGAC,66.7 ± 8.3
5,GCCGT,93.1 ± 5.6
6,ACAGG,74.5 ± 6.1
7,GCTAG,79.5 ± 7.8
8,ACGCG,70.6 ± 6.6
9,GACAC,91.9 ± 7
10,GGGCC,76.3 ± 9.2
11,GGACT,76.5 ± 5.1
12,GAAGG,96.8 ± 5.2
13,AATC,77.5 ± 9.8
14,TCTAA,217 ± 6.6
15,GGTA,56.5 ± 5.7
16,AATAG,95.8 ± 9.6
17,TATTT,156 ± 7.3
18,GCCC,78.7 ± 9.1
19,CAGC,63.5 ± 8.4
20,CGTAG,55.2 ± 7
21,CAGTT,36.5 ± 5
22,TTAAA,563 ± 39
23,GCTG,74.1 ± 4
24,TAGAT,129 ± 12

row,Sequence,TdT poly-dT extension signal
1,CCCCA,90.6 ± 9.5
2,CTCT,116 ± 10
3,GTGGT,108 ± 11
4,TCATG,177 ± 14
5,TTGA,270 ± 19
6,TTTTT,282 ± 18
7,GCGAC,77.7 ± 4.9
8,AGGAG,42.4 ± 5
9,TCGGA,148 ± 9.6
10,GTTCC,107 ± 11
11,GTTAA,194 ± 15
12,TTAAT,491 ± 32
13,AGAGT,54.1 ± 6.2
14,ACACT,72.1 ± 8.9
15,AAGGT,41.4 ± 5.3
16,TCAAG,211 ± 11
17,ACTC,56.8 ± 6.9
18,GCGGT,68.6 ± 7.9
19,ATGTC,127 ± 12
20,AAACT,84.4 ± 6.5
21,GCGGG,90.1 ± 8
22,ATTAT,152 ± 14
23,GGATT,74.9 ± 9.2
24,TATA,181 ± 12

row,Sequence,TdT poly-dT extension signal
1,TGAGT,131 ± 9.1
2,GGGC,62.9 ± 7.1
3,ATATT,201 ± 13
4,CGTCA,48.1 ± 5.3
5,TGCAC,141 ± 11
6,GCCAT,101 ± 8
7,ATAGG,198 ± 12
8,TCCG,221 ± 19
9,TTAC,275 ± 24
10,GAAAA,92.8 ± 8
11,CACT,62.8 ± 5.1
12,TACTG,153 ± 14
13,CCATC,82.8 ± 6.9
14,GACT,93.3 ± 9.4
15,CGTAC,60.9 ± 10
16,GATAG,107 ± 6.9
17,AATGC,75.1 ± 4.9
18,GACGG,117 ± 18
19,GAAC,62.2 ± 20
20,CGAAG,65 ± 9.1
21,ATGC,80.2 ± 14
22,CGACC,76.4 ± 8
23,TGAC,176 ± 7.7
24,AATTG,77.2 ± 7

row,Sequence,TdT poly-dT extension signal
1,CGCG,64.9 ± 6.4
2,GTAAG,225 ± 10
3,ACCT,60.9 ± 7.7
4,GATCA,81.6 ± 7.9
5,GCAGT,73.5 ± 5.5
6,GACGA,106 ± 8.7
7,ACCTG,84 ± 6.2
8,CGTCG,45.4 ± 5.4
9,TAGCT,99.8 ± 7.7
10,TAAT,182 ± 10
11,CGGGA,60.8 ± 6.1
12,TGCCG,122 ± 9.3
13,GGAAT,88.1 ± 5.6
14,CTTC,120 ± 9.2
15,GGCC,61.3 ± 8.8
16,GTGCC,108 ± 5.5
17,CGGA,56.1 ± 5.8
18,CTAGG,182 ± 8.8
19,GCCT,75.9 ± 4.8
20,GTCCG,147 ± 12
21,CGCTC,48.2 ± 4.3
22,GGACC,70.6 ± 4.7
23,CCGAG,87.5 ± 7.8
24,CATAT,82.7 ± 8.5

row,Sequence,TdT poly-dT extension signal
1,AAGC,53.4 ± 4.2
2,TAGTT,96 ± 7.2
3,ACGG,64.6 ± 5.5
4,GCTCC,67.8 ± 8.8
5,ATCTT,145 ± 15
6,ACAT,82 ± 8.4
7,GACGT,94.7 ± 7.7
8,CTACT,152 ± 15
9,GTGGC,112 ± 8.7
10,CCTTG,71.3 ± 8.8
11,TGTCC,108 ± 4.2
12,ACAG,82 ± 7.7
13,CTAGT,157 ± 12
14,CACCG,74.4 ± 8.1
15,TTACT,396 ± 14
16,TGTTT,120 ± 12
17,TCCCT,155 ± 18
18,GAGTC,53.7 ± 4.8
19,CGATG,73.4 ± 8.6
20,AGTGG,52.3 ± 9.2
21,CAGCT,41.4 ± 6.6
22,AATTA,82.4 ± 8.4
23,TGGTG,109 ± 9.7
24,AGTAT,48.2 ± 7.1

row,Sequence,TdT poly-dT extension signal
1,TGCGG,142 ± 10
2,TCTGA,172 ± 12
3,TATCA,160 ± 12
4,CGCGT,66.2 ± 5.5
5,GCGG,75.5 ± 8.2
6,AGTTT,45.4 ± 6
7,GCCA,104 ± 8.3
8,CTGTA,105 ± 8.6
9,ATTTG,156 ± 10
10,CTGGA,122 ± 11
11,ACGCC,48.2 ± 6.1
12,CATCG,72.9 ± 11
13,AGATA,53.6 ± 6.9
14,CAGTA,25.7 ± 14
15,CTTCC,86.1 ± 12
16,CCTAA,98.7 ± 6
17,AAAAG,101 ± 8.9
18,GAGAT,61.7 ± 5.4

# Source: the supplement of paper PMC8291772
